The BET-seq Pho4 binding data (Le et al. 2018)
Some of the results follow. The energies were worked out here from pooled read counts, against the library average; single values are noisy.

Molecular target: T1, Pho4 (S. cerevisiae) (UniProt P07270)
T1 sequence: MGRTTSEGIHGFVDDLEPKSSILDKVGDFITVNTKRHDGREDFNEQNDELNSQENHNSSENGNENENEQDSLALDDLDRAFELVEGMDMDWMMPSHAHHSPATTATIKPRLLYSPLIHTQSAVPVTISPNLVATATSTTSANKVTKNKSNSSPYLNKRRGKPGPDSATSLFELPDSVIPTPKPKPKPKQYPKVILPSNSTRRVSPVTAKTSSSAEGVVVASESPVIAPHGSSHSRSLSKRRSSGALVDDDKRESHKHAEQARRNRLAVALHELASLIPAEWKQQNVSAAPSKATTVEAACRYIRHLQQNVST
Test: relative binding free energy (BET-seq); higher = weaker binding
Details: reference: library average

Relative binding free energy, 0.43 kcal/mol:
CAGATCACGTGTGGTA

Relative binding free energy, -0.27 kcal/mol:
AGTGACACGTGGTAAT, TTAAGCACGTGGGCTT, GGGGGCACGTGCGTCA, AAGTGCACGTGGTTGA

Relative binding free energy, 0.42 kcal/mol:
TAAATCACGTGAGTTG

Relative binding free energy, -0.17 kcal/mol:
TTTTGCACGTGGGCTA

Relative binding free energy, -0.13 kcal/mol:
TAAGGCACGTGGCTAT

Relative binding free energy, 0.28 kcal/mol:
GGTGACACGTGAGGGC

Relative binding free energy, -0.28 kcal/mol:
ATGAGCACGTGGCTTT

Relative binding free energy, 0.35 kcal/mol:
TTTTTCACGTGGAATC, GGACTCACGTGATGGT

Relative binding free energy, 0.22 kcal/mol:
TTTGTCACGTGACGCT, GTGGTCACGTGTACGA, TGTATCACGTGAATGG, GTTCTCACGTGTGGTA, GGCGACACGTGATGGG, CGTTTCACGTGTTATA

Relative binding free energy, 0.4 kcal/mol:
GTCGTCACGTGGATAA, GGGTACACGTGTAAAA

Relative binding free energy, 0.13 kcal/mol:
GTCGACACGTGTGTGT, TTTGTCACGTGAACAG, CTTTACACGTGTCTTT, TTAGTCACGTGTTTGA

Relative binding free energy, 0.1 kcal/mol:
GGAGTCACGTGGGCGC, GTCGTCACGTGGAGGC, CTGTACACGTGGTACG, AGTCGCACGTGTGGAG, GAATGCACGTGCTGGG, TTGGTCACGTGCTTCA

Relative binding free energy, 0.21 kcal/mol:
TGTCGCACGTGAGCGG, TGTTGCACGTGAACGG, AGGCGCACGTGAAGGT

Relative binding free energy, -0.02 kcal/mol:
GTATGCACGTGGTGGG, GGATACACGTGGGCAT, ATTGTCACGTGCGCTG

Relative binding free energy, -0.12 kcal/mol:
CTAAGCACGTGGGGAG, TTGTGCACGTGCAAGT, GTTGGCACGTGTATAC, CGCTGCACGTGGGTGA, AGCTGCACGTGGGGGC

Relative binding free energy, 0.17 kcal/mol:
GTTTACACGTGAGGCT, TAGGTCACGTGATTAG, GTTGGCACGTGTGATA

Relative binding free energy, 0.06 kcal/mol:
GGACGCACGTGTGGTC, TAGGTCACGTGGGACT, GCTGGCACGTGTGGTT

Relative binding free energy, 0.38 kcal/mol:
AATCGCACGTGAAGGG

Relative binding free energy, 0.08 kcal/mol:
AATTGCACGTGGATGA, GGGTACACGTGTAGTC, TGAAACACGTGGTTTC, CCTATCACGTGGTGGT, GGTGACACGTGTGACG

Relative binding free energy, -0.11 kcal/mol:
TTTGACACGTGGTCGT, GTGCGCACGTGGCAGG, AATGACACGTGGTTGT

Relative binding free energy, 0.09 kcal/mol:
TATTACACGTGTGTAT, TAATTCACGTGATGGA, TCTTGCACGTGCAGGG, GTAGTCACGTGGTGGC, TTGTGCACGTGACGGA, TTGTACACGTGTAAGA

Relative binding free energy, 0.14 kcal/mol:
GTGTACACGTGCAGGT, AGAGTCACGTGTTGAT, ACGGGCACGTGATGGA, TGGAACACGTGAGCGT, AGTATCACGTGGAGAG

Relative binding free energy, 0.02 kcal/mol:
AGGTACACGTGTTCTT, GTTCGCACGTGGGAGC, GATGGCACGTGTGTGC, TGTAGCACGTGATAGT, CGCGGCACGTGGAGGA, TATGACACGTGTGTAT, TATGTCACGTGGTTAC, GGTTGCACGTGCGGGC

Relative binding free energy, -0.22 kcal/mol:
AGCGACACGTGGGGGA, TAGCGCACGTGGTCGT, TTCGGCACGTGGAGCG, TCTGGCACGTGGGGGT

Relative binding free energy, -0.15 kcal/mol:
TCGAGCACGTGGTGTG

Relative binding free energy, 0.39 kcal/mol:
GGCTACACGTGAGTTT

Relative binding free energy, -0.2 kcal/mol:
TGGTGCACGTGGGCCG

Relative binding free energy, -0.24 kcal/mol:
GGTGGCACGTGCCCGG

Relative binding free energy, -0.19 kcal/mol:
ATCAGCACGTGTGTGT, CTTAACACGTGGGGGT

Relative binding free energy, 0.16 kcal/mol:
TCTGTCACGTGGTTTT, GTAAGCACGTGAGGGT, GGGGTCACGTGGAGCC, TCATTCACGTGGTAGT, AGTTTCACGTGCTGCG

Relative binding free energy, 0.03 kcal/mol:
AGTCGCACGTGTTGAT, GGATCCACGTGTAGTG, GGTATCACGTGGGGCT, TTAATCACGTGCAGGG, TGCGGCACGTGTATTG

Relative binding free energy, 0.36 kcal/mol:
ATTTTCACGTGTCGCG

Relative binding free energy, 0.2 kcal/mol:
TATGTCACGTGAAGGT, TTCCTCACGTGGGTTT, GCTGCCACGTGAGGTG

Relative binding free energy, -0.18 kcal/mol:
TAATGCACGTGGGGCA, CTGGGCACGTGGGGGC

Relative binding free energy, 0.07 kcal/mol:
CATGGCACGTGAAGGT, GCGAACACGTGGGTTT, GCGGTCACGTGGTTGA, GACGTCACGTGGTAGG, AATTGCACGTGGCTTG, GTGGTCACGTGCACGG, TGAGTCACGTGGGTAT

Relative binding free energy, 0.34 kcal/mol:
TTGAGCACGTGAATCT

Relative binding free energy, 0.05 kcal/mol:
GCTGTCACGTGCAGGT, GTGTGCACGTGGATAG, ATTGACACGTGTTGCG, ATTCACACGTGGGGGG, GTTATCACGTGGCATT, TAAATCACGTGTTTGG, TGGGTCACGTGCCTAG

Relative binding free energy, -0.14 kcal/mol:
TATTCCACGTGGGTGA

Relative binding free energy, 0.44 kcal/mol:
AGTTCCACGTGAGTGG, TGTTTCACGTGTAAGC

Relative binding free energy, 0.25 kcal/mol:
TGAGACACGTGATTGA, TTTTTCACGTGATCGC, TGTTTCACGTGGTTAG

Relative binding free energy, 0.19 kcal/mol:
ATCCGCACGTGATGGT, GGCTACACGTGTTTAG

Relative binding free energy, -0.07 kcal/mol:
GGCTGCACGTGGTGTA, TGTGGCACGTGTTTCG, GAGCACACGTGGGTTG, TGGTACACGTGGCTTG

Relative binding free energy, 0 kcal/mol:
ATTGCCACGTGTAGTA, ATTGGCACGTGAAGGG, TGGAGCACGTGTATAT, AATTACACGTGGGTGA, CGCAGCACGTGTGGGA

Relative binding free energy, 0.32 kcal/mol:
ATGATCACGTGTTGAA, GTGAACACGTGAAATG, TAGATCACGTGTGGCT

Relative binding free energy, -0.05 kcal/mol:
TGTGACACGTGTGGCT, TGATGCACGTGTTCTG, GTGGGCACGTGTTCGC, GCGTGCACGTGGTATG, TGTAACACGTGTTTGA, AATTGCACGTGCTGGA, TTTAGCACGTGGGTCC

Relative binding free energy, 0.26 kcal/mol:
TTCATCACGTGTGTTC

Relative binding free energy, 0.04 kcal/mol:
TGGATCACGTGGGCTT, TAATGCACGTGATGTG

Relative binding free energy, 0.24 kcal/mol:
GTGTTCACGTGTGCTG, TATATCACGTGTACTT, ATGTTCACGTGAATTG

Relative binding free energy, -0.21 kcal/mol:
ATTGCCACGTGGGATG, GGGGGCACGTGTCGTC, ATGGCCACGTGGTTAG, TGAAGCACGTGGTCGG, AGGGCCACGTGCGGAG, CTCGGCACGTGGGTTT

Relative binding free energy, 0.29 kcal/mol:
AACTTCACGTGGTAGG

Relative binding free energy, -0.25 kcal/mol:
TGCTGCACGTGGTGGA

Relative binding free energy, 0.46 kcal/mol:
AGATTCACGTGAGAGG, TGTTTCACGTGAGGAT

Relative binding free energy, 0.3 kcal/mol:
GGTGACACGTGAAGAT, GGCTACACGTGATTGT

Relative binding free energy, 0.12 kcal/mol:
GGGTACACGTGCGGCA, TGCAGCACGTGAGGCG, TCTGTCACGTGTGAGT, TGTAACACGTGTCTGA, GTGATCACGTGGGTTC

Relative binding free energy, -0.1 kcal/mol:
GTTGGCACGTGGGTGC, TGCGACACGTGGTGGT, CGATGCACGTGGCTGT, TTGTGCACGTGACCGG

Relative binding free energy, 0.18 kcal/mol:
GTGCTCACGTGCTGGT, GGGGTCACGTGATAAG, GGATTCACGTGCGTGT

Relative binding free energy, 0.23 kcal/mol:
TAGTTCACGTGCTTGG

Relative binding free energy, -0.03 kcal/mol:
GTGGGCACGTGCTTTT, GTGTCCACGTGCGTGG, TGATGCACGTGTCGCG

Relative binding free energy, -0.04 kcal/mol:
GGCGGCACGTGTTTGG, ATGTGCACGTGTATAG, CTATACACGTGGTTGA, ACTAACACGTGTTGGG, AGTTGCACGTGTCTGT, TATGTCACGTGGGTGG

Relative binding free energy, -0.06 kcal/mol:
CGTTACACGTGCGGTG, TATTGCACGTGGATGA, TTTGGCACGTGTATGA, ATGGGCACGTGTGCAG, CGGTACACGTGGGGGT, AGGTGCACGTGTGCTG, TGCGACACGTGTGCGT

Relative binding free energy, 0.01 kcal/mol:
AATTCCACGTGGGGAG, ATTGACACGTGAGATG, ATTTACACGTGGGGAA

Relative binding free energy, -0.08 kcal/mol:
TAATGCACGTGTTGTT, GGATCCACGTGGGTGT, AGTAACACGTGTGGTG, TGTGTCACGTGGTGCA, GGGTGCACGTGCTATA

Relative binding free energy, 0.31 kcal/mol:
GGATACACGTGAGGCG, GGGCTCACGTGTTGAG, TTTCTCACGTGATGTT

Relative binding free energy, 0.15 kcal/mol:
CGGATCACGTGTGGGT, GTGGCCACGTGAGGAG, GATTGCACGTGTGTAT, TGGATCACGTGAGGAA, TGCTACACGTGAGGGG, AACTACACGTGGTTGG

Relative binding free energy, 0.11 kcal/mol:
GGAGTCACGTGGTGCT, AAAGTCACGTGGTTGA, TTTCACACGTGTAGTT, TTAATCACGTGTGGCA, GTATACACGTGCGGTT

Relative binding free energy, -0.01 kcal/mol:
AAATGCACGTGTGGTT, TACGTCACGTGCTTGG, TCTGGCACGTGTTTAT

Relative binding free energy, -0.23 kcal/mol:
TTAGGCACGTGGGTCG

Relative binding free energy, 0.33 kcal/mol:
GTGGTCACGTGATTGA, AAGTTCACGTGGAGCT, GGGTACACGTGATTGC, CATTTCACGTGAGTGG

Relative binding free energy, -0.16 kcal/mol:
GTTGGCACGTGCGGCG, TCGGGCACGTGTTCGT, TGAGGCACGTGGGTGT

Relative binding free energy, -0.09 kcal/mol:
TCTGTCACGTGGGTTG, TATGGCACGTGGTCCT, GGTTGCACGTGCTGTA, TTGAGCACGTGTGTCA, TATGGCACGTGTGTCT, TGTACCACGTGGAGGT, TATGGCACGTGGAGAT
